Assay results published in paper PMC12820563, “FoxP3 forms a head-to-head dimer in vivo and stabilizes its multimerization on adjacent microsatellites”.
This is one part of the list.

These sequences were tested against T1, MBP-FoxP1dN (Mus musculus, UniProt P58462 326-579) (assay: PD-seq (MBP pull-down with sequencing); 20 mM Tris-HCl pH 7.5, 100 mM NaCl, 1.5 mM MgCl2, 0.4 uM protein, 0.1 uM dsDNA library, 30 min, room temperature, amylose pull-down; high values mean tight binding). Settings: protein: recombinant; tags: His6-MBP; chain copies: 2; dsDNA, one strand shown.
T1 sequence: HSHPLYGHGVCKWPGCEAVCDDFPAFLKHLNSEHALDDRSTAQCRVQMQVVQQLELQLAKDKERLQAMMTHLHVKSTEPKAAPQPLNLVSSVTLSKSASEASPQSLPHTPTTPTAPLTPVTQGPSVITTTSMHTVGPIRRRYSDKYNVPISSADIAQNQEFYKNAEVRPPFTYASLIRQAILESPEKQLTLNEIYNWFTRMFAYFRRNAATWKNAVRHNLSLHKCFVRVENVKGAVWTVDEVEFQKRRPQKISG
In short: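 Protein and DNA were mixed at 0.4 µM and 0.1 µM and held for 30 min at room temperature in Tris pH 7.5 buffer with NaCl and MgCl2; the protein was a His6-MBP-tagged, N-terminally truncated mouse FoxP3 or FoxP1 fragment from E. coli, and the DNA a Klenow-filled double-stranded degenerate library. Amylose resin captured the complexes, which were washed three times. Binding is read as reads-per-million enrichment of pull-down versus input after Illumina sequencing, with replicates pooled.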
With “GATGATTGTTCTCCCAGCTGATGAATTACACCTCTCGAGTAAACAAATTTTCCTAATCTTTCTGTTCAAGCGCCATCTAC” the binding signal was 1.02 RPM ratio (pull-down/input). In the case of “GATGATTGTTCTCCCAGCTGATGAATTCGTGGCGTCGAGTAAACAAATTTTCCTAATCTTTCTGTTCAAGCGCCATCTAC”, the binding signal is reported as 0.862 RPM ratio (pull-down/input). In the case of “GATGATTGTTCTCCCAGCTGATGAATTCACCATCTCGAGTAAACAAATTTTCCTAATCTTTCTGTTCAAGCGCCATCTAC”, the binding signal is reported as 0.846 RPM ratio (pull-down/input). “GATGATTGTTCTCCCAGCTGATGAATTAGGTTGCTCGAGTAAACAAATTTTCCTAATCTTTCTGTTCAAGCGCCATCTAC” was tested, and the binding signal was 1.03 RPM ratio (pull-down/input). “GATGATTGTTCTCCCAGCTGATGAATTAGAACGCTCGAGTAAACAAATTTTCCTAATCTTTCTGTTCAAGCGCCATCTAC” was tested, and the binding signal was 0.916 RPM ratio (pull-down/input). “GATGATTGTTCTCCCAGCTGATGAATTGGAAAAGTCGAGTAAACAAATTTTCCTAATCTTTCTGTTCAAGCGCCATCTAC” was tested, and the binding signal was 0.844 RPM ratio (pull-down/input). In the case of “GATGATTGTTCTCCCAGCTGATGAATTGACCAACTCGAGTAAACAAATTTTCCTAATCTTTCTGTTCAAGCGCCATCTAC”, the binding signal is reported as 0.971 RPM ratio (pull-down/input). “GATGATTGTTCTCCCAGCTGATGAATTCGATATCTCGAGTAAACAAATTTTCCTAATCTTTCTGTTCAAGCGCCATCTAC” was tested, and the binding signal was 0.765 RPM ratio (pull-down/input). With “GATGATTGTTCTCCCAGCTGATGAATTGCACCAGTCGAGTAAACAAATTTTCCTAATCTTTCTGTTCAAGCGCCATCTAC” the binding signal was 1.07 RPM ratio (pull-down/input). With “GATGATTGTTCTCCCAGCTGATGAATTATGGTCATCGAGTAAACAAATTTTCCTAATCTTTCTGTTCAAGCGCCATCTAC” the binding signal was 1.04 RPM ratio (pull-down/input). In the case of “GATGATTGTTCTCCCAGCTGATGAATTGAACGTCTCGAGTAAACAAATTTTCCTAATCTTTCTGTTCAAGCGCCATCTAC”, the binding signal is reported as 0.787 RPM ratio (pull-down/input). For “GATGATTGTTCTCCCAGCTGATGAATTAGCTGTGTCGAGTAAACAAATTTTCCTAATCTTTCTGTTCAAGCGCCATCTAC”, the binding signal was 1 RPM ratio (pull-down/input). With “GATGATTGTTCTCCCAGCTGATGAATTTTATGGATCGAGTAAACAAATTTTCCTAATCTTTCTGTTCAAGCGCCATCTAC” the binding signal was 0.887 RPM ratio (pull-down/input). With “GATGATTGTTCTCCCAGCTGATGAATTGCCCGAGTCGAGTAAACAAATTTTCCTAATCTTTCTGTTCAAGCGCCATCTAC” the binding signal was 0.845 RPM ratio (pull-down/input). For “GATGATTGTTCTCCCAGCTGATGAATTCCACTGCTCGAGTAAACAAATTTTCCTAATCTTTCTGTTCAAGCGCCATCTAC”, the binding signal was 0.743 RPM ratio (pull-down/input). In the case of “GATGATTGTTCTCCCAGCTGATGAATTGTGGATATCGAGTAAACAAATTTTCCTAATCTTTCTGTTCAAGCGCCATCTAC”, the binding signal is reported as 1.12 RPM ratio (pull-down/input). With “GATGATTGTTCTCCCAGCTGATGAATTGCATACATCGAGTAAACAAATTTTCCTAATCTTTCTGTTCAAGCGCCATCTAC” the binding signal was 1.37 RPM ratio (pull-down/input). For “GATGATTGTTCTCCCAGCTGATGAATTAGGGAACTCGAGTAAACAAATTTTCCTAATCTTTCTGTTCAAGCGCCATCTAC”, the binding signal was 0.86 RPM ratio (pull-down/input). For “GATGATTGTTCTCCCAGCTGATGAATTGCCGGCGTCGAGTAAACAAATTTTCCTAATCTTTCTGTTCAAGCGCCATCTAC”, the binding signal was 0.923 RPM ratio (pull-down/input). In the case of “GATGATTGTTCTCCCAGCTGATGAATTCCGACAATCGAGTAAACAAATTTTCCTAATCTTTCTGTTCAAGCGCCATCTAC”, the binding signal is reported as 1.08 RPM ratio (pull-down/input). “GATGATTGTTCTCCCAGCTGATGAATTTCGTACATCGAGTAAACAAATTTTCCTAATCTTTCTGTTCAAGCGCCATCTAC” was tested, and the binding signal was 1.07 RPM ratio (pull-down/input). “GATGATTGTTCTCCCAGCTGATGAATTATTTTATTCGAGTAAACAAATTTTCCTAATCTTTCTGTTCAAGCGCCATCTAC” was tested, and the binding signal was 1.22 RPM ratio (pull-down/input). For “GATGATTGTTCTCCCAGCTGATGAATTTGGGGCATCGAGTAAACAAATTTTCCTAATCTTTCTGTTCAAGCGCCATCTAC”, the binding signal was 1.06 RPM ratio (pull-down/input). “GATGATTGTTCTCCCAGCTGATGAATTATCTCGATCGAGTAAACAAATTTTCCTAATCTTTCTGTTCAAGCGCCATCTAC” was tested, and the binding signal was 0.93 RPM ratio (pull-down/input). For “GATGATTGTTCTCCCAGCTGATGAATTGGGAGGGTCGAGTAAACAAATTTTCCTAATCTTTCTGTTCAAGCGCCATCTAC”, the binding signal was 0.737 RPM ratio (pull-down/input). In the case of “GATGATTGTTCTCCCAGCTGATGAATTGCCCCATTCGAGTAAACAAATTTTCCTAATCTTTCTGTTCAAGCGCCATCTAC”, the binding signal is reported as 0.959 RPM ratio (pull-down/input). In the case of “GATGATTGTTCTCCCAGCTGATGAATTGGGCTAGTCGAGTAAACAAATTTTCCTAATCTTTCTGTTCAAGCGCCATCTAC”, the binding signal is reported as 0.807 RPM ratio (pull-down/input). For “GATGATTGTTCTCCCAGCTGATGAATTGAAGACGTCGAGTAAACAAATTTTCCTAATCTTTCTGTTCAAGCGCCATCTAC”, the binding signal was 0.815 RPM ratio (pull-down/input). In the case of “GATGATTGTTCTCCCAGCTGATGAATTGAAGTAGTCGAGTAAACAAATTTTCCTAATCTTTCTGTTCAAGCGCCATCTAC”, the binding signal is reported as 0.816 RPM ratio (pull-down/input). For “GATGATTGTTCTCCCAGCTGATGAATTTGGTGAGTCGAGTAAACAAATTTTCCTAATCTTTCTGTTCAAGCGCCATCTAC”, the binding signal was 0.843 RPM ratio (pull-down/input). In the case of “GATGATTGTTCTCCCAGCTGATGAATTCTCAGGATCGAGTAAACAAATTTTCCTAATCTTTCTGTTCAAGCGCCATCTAC”, the binding signal is reported as 0.775 RPM ratio (pull-down/input).
